The values that follow come from US12435144B2, “Use of combination of anti-PD-1 antibody and VEGFR inhibitor in preparation of drug for treating cancers” (Suzhou Suncadia Biopharmaceuticals Co., Ltd., priority 2016, dated 2025).

For one data set, the system named is advanced solid tumors. To be noted: in vivo; cited from earlier work.
A further data set relates to advanced malignant tumor. To be noted: human, in vivo. From the text: Inclusion criteria: (1) advanced malignancy; (2) failure in chemotherapy by using first-line, second-line or above; (3) measurable lesions; (4) ECOG score 0-1.
Test drugs: commercially available apatinib mesylate tablet; the anti-PD-1 antibody of Example 1.
Method of administration: Up to Sep. 20, 2017, a total of 31 subjects were screened, 30 subjects were enrolled (14 subjects withdrew from treatment, and 16 subjects were still in the group of administration).
Administration method for subjects No. 001-005 was intravenous infusion of anti-PD-1 antibody, 3 mg/kg, once every 2 weeks; apatinib orally, 500 mg, once a day. Administration method for subjects No. 006-010 was intravenous infusion of anti-PD-1 antibody, 200 mg, once every 2 weeks; apatinib orally, 125 mg, once a day. Administration method for subjects No. 011-031 was intravenous infusion of anti-PD-1 antibody, 200 mg, once every 2 weeks; apatinib orally, 250 mg, once a day.

The subject of data set [1] is mouse colon cancer cell MC-38 (PD-L1) xenograft. Briefly: MC38 (PD-L1) xenograft in human PD-1 transgenic C57 mice. To be noted: anti-PD-1 antibody 3 mg/kg ip Q2D*7, apatinib 200 mg/kg po QD*14; for % Tumor inhibition rate D21: day 21, vs HIgG control. The format is in vivo. The procedure:
• 1. Study purposes: Human PD-1 transgenic mice were used as test animals. The effects of anti-PD-1 antibody in combination with apartinib on human PD-1 expressed in transgenic C57 mice were evaluated, and the transgenic mice bear mouse colon cancer cell MC-38 (PD-L1) xenograft transfected with PD-L1 gene. • 2. Test antibodies and compounds: The anti-PD-1 antibody was prepared according to the method disclosed in WO2015085847 in which the corresponding code of the antibody is H005-1, and the sequences of the heavy and light chain are shown in SEQ ID NO: 7 and SEQ ID NO: 8 in the present invention. Lot number: P1512, 200 mg/vial, formulated into 20 mg/ml before use. Apatinib mesylate was prepared according to the method disclosed in CN101676267A, lot number: 668160401; molecular weight: 493.58; purity: 99.60%. • 3. Experimental animals: Human PD-1 transgenic C57 mice, specific-pathogen-free (SPF), with different body weights, 50% male and 50% female, were purchased from IsisInnovation Limited, UK. • 4. Drug preparation: Anti-PD-1 antibody (3 mg/kg): anti-PD-1 antibody stock solution (20 mg/ml) was adjusted to a concentration of 0.3 mg/ml with phosphate buffered saline (PBS), and the intraperitoneal injection volume was 0.2 ml/mouse. Apatinib (200 mg/kg): 400 mg apatinib was dissolved in 20 ml of 0.5% sodium carboxymethylcellulose (NaCMC), adjusted to 20 mg/ml, and was administered in 0.2 ml per mouse by gavage. The solvent vehicle (HIgG) control contained human IgG (3 mg/kg dissolved in 0.5% CMC, adjusted to 0.3 mg/ml, and the volume for intraperitoneal injection was 0.2 ml/mouse. • 5. Test method: • 5.1 C57 mice were adapted to the laboratory environment for >5 days. • 5.2 Tumor cells transplantation: Skin preparation was performed on human PD-1 transgenic C57 mice one day before MC38 (PD-L1) cells (5×10^6/mouse) were inoculated subcutaneously at the right flank on June 12. The tumors were then grown for 8 days. When the tumors reached 142.17±13.30 mm^3, the animals were randomly assigned to 4 groups (d0) with 8 mice in each group (four male mice and four female mice in each group). • 5.3 Dose and method of administration: Anti-PD-1 antibody was injected intraperitoneally, Q2D*7 (once every 2 days, 7 times in total), and apatinib was administered by oral gavage, QD*14 (once a day for 14 days). The specific drug administration regimen is shown in Table 1. • 5.4 Determination of volume of xenograft and body weight of mice: Tumor volume and body weight were measured twice a week and data were recorded. • 5.5 Statistics: Excel 2003 statistical software was used: the mean was calculated by avg; the SD value was calculated by STDEV; the SEM value was calculated by STDEV/SQRT; the P value indicating the difference between groups is calculated by TTEST. […]
(A xenograft is tissue or cells of one species grown in another, often human tumour cells in immunodeficient mice.)

B1: Anti-PD-1 antibody: humanized anti-PD-1 antibody, code H005-1 in WO2015085847; heavy chain SEQ ID NO: 7, light chain SEQ ID NO: 8 (antibody)
heavy: EVQLVESGGGLVQPGGSLRLSCAASGFTFSSYMMSWVRQAPGKGLEWVATISGGGANTYYPDSVKGRFTISRDNAKNSLYLQMNSLRAEDTAVYYCARQLYYFDYWGQGTTVTVSSASTKGPSVFPLAPCSRSTSESTAALGCLVKDYFPEPVTVSWNSGALTSGVHTFPAVLQSSGLYSLSSVVTVPSSSLGTKTYTCNVDHKPSNTKVDKRV[sequence of human IgG4 Fc with S228P (EU numbers) omitted]
light: DIQMTQSPSSLSASVGDRVTITCLASQTIGTWLTWYQQKPGKAPKLLIYTATSLADGVPSRFSGSGSGTDFTLTISSLQPEDFATYYCQQVYSIPWTFGGGTKVEIKRTVAAPSVFIFPPSDEQLKSGTASVVCLLNNFYPREAKVQWKVDNALQSGNSQESVTEQDSKDSTYSLSSTLTLSKADYEKHKVYACEVTHQGLSSPVTKSFNRGEC
modifications: PD-1 FORM Heavy chain; PD-1 FORM Light chain
Turning to B1, in the data set on advanced solid tumors, the “incidence of capillary hemangioma” value is 79.3%, the incidence of diarrhea is listed as 10.3%, the incidence of hypothyroidism is given as 29.3% and the incidence of pruritus is 19.0%. Besides, in the data set with advanced malignant tumor, the hemangioma-associated adverse effect entry is “observed in only one subject”. Also, in data set [1] (RTV=VT/V0, day 21), the “Relative tumor volume D21” value worked out at 11.47. Also, in data set [1], the “% Tumor inhibition rate D21” value came out at 20.40%. Further, the “% Tumor inhibition rate D21” value in data set [1] (listed as anti-PD-1 antibody) amounted to 20.40%. Also, the “Mean tumor volume (mm^3) D21” value in data set [1] (day 21 after initial administration, 8 mice/group) amounted to 1652.93 mm^3.
